# Experimental data taken from article PMC4336329 (PLoS ONE, 2015).
# Screen size: about 310,000 compounds; about 2,200 (0.71%) showed an effect of 50% or more. The effect is printed as a negative number. Some of the results follow.
# Biological target: human ether-à-go-go-related gene (hERG) potassium channel (human, UniProt Q12809)
# Assay: primary screen, population patch clamp on CHO cells stably expressing hERG
# Chain of human ether-à-go-go-related gene (hERG) potassium channel (Q12809 whole entry, looked up): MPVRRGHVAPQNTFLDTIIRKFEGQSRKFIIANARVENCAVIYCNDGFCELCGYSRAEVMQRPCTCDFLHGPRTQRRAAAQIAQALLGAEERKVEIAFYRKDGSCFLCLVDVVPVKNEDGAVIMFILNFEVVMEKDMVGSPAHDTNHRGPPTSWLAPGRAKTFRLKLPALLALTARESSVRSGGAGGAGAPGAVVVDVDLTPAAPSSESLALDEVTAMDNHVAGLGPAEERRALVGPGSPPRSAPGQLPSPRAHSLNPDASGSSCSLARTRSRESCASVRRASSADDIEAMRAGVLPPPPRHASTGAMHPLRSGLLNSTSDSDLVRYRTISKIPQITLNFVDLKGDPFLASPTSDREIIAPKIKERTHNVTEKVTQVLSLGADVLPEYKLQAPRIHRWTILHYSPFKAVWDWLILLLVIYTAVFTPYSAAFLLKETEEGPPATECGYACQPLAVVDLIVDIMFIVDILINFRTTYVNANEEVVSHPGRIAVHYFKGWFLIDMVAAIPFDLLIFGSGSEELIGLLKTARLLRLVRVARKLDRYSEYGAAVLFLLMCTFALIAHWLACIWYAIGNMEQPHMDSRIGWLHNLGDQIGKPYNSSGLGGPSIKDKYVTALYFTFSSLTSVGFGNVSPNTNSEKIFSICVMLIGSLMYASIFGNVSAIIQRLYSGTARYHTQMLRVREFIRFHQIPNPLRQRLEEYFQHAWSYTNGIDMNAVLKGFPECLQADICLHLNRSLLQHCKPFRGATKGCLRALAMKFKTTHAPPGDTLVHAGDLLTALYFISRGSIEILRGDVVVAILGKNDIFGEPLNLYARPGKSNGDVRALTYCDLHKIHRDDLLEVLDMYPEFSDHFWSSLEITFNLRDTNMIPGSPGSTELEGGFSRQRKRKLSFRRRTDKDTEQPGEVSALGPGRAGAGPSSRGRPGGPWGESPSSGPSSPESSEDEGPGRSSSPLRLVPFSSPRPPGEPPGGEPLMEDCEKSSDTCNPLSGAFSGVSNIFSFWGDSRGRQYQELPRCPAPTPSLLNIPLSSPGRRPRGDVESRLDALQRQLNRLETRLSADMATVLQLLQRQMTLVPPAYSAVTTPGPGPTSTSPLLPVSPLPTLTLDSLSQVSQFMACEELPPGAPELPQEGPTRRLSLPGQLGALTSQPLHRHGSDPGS
row,Compound,"hERG current change (%, negative = inhibition) at 1uM [%]"
1,O=C1NN(c2cccc(Br)c2)C(=O)/C1=C\c1ccc(N2CCOCC2)cc1,14.9
2,c1ccc(-c2nnc3n2-c2ccccc2SC3)cc1,4.65
3,COc1ccc([N+](=O)[O-])cc1NS(=O)(=O)c1ccccc1,3.49
4,CN(C(=O)CCNC(=O)Cn1ccc2ccccc2c1=O)c1ccc(Br)cc1,16.7
5,CCCC(=O)Nc1ccc2c(c1)COC2=O,9.46
6,Cc1ccc(CC2CC(=O)N(c3ccncc3)C2=O)cc1 (stereo not drawn),5.58
7,CN(C)CCCN=C(NO)c1ccc(Cl)cc1Cl,11.2
8,CC(=O)N=c1sc2ccccc2n1C,16.6
9,O=S(=O)(c1cccs1)N1CCN(Cc2cccc(F)c2)CC1,20.4
10,N#C/C(=C\c1ccc(Cl)cc1)c1nc2ncccc2[nH]1,5.52
11,O=C(/C=C/c1ccco1)N1CCc2ccccc21,10.4
12,Cc1ccc(NC(=O)Cn2ccc([N+](=O)[O-])n2)cc1C,8.5
13,CCN1C(=O)C(CC(=O)Nc2cc(C)ccc2C)SC1=Nc1ccc(S(N)(=O)=O)cc1 (stereo not drawn),0.831
14,CCNNC(=O)C(O)(Cc1ccccc1)Cc1ccccc1,18.2
15,O=C(Nc1ccc(CN2CCOCC2)cc1)c1ccc(N2CCCC2)c([N+](=O)[O-])c1,16.9
16,N#Cc1c(N)n(-c2ccccc2N)c2nc3ccccc3nc12,10
17,Cc1ccc(NC(=O)CCNS(=O)(=O)c2ccc3c(c2)oc(=O)n3C)cc1,-3.88
18,Cc1ccccc1NC(=O)c1ccc(-n2cncn2)nc1,1.37
19,Fc1ccc(C2c3[nH]c4ccccc4c3CCN2CCCn2cccn2)cc1 (stereo not drawn),-14.3
20,COc1ccc([C@@H]2[C@H]3C(=O)N(c4cccc(C(F)(F)F)c4)C(=O)[C@H]3ON2C)cc1,-2.9
21,Cc1ccc(C2=CC(c3cccs3)n3nnnc3N2)cc1 (stereo not drawn),-3.6
22,CCN1CCN(C(c2cccs2)C(C)NC(=O)c2c(F)cccc2F)CC1 (stereo not drawn),1.34

row,Compound,"hERG current change (%, negative = inhibition) at 1uM [%]"
1,COc1ccc(C2=NN(C(=O)c3ccc(Cl)c([N+](=O)[O-])c3)C(c3ccccc3)C2)cc1 (stereo not drawn),10.5
2,O=C(COC(=O)c1cc(-c2cccs2)nn1-c1ccccc1)Nc1ccc(Cl)c([N+](=O)[O-])c1,12.9
3,COc1ccc(OC)c(NS(=O)(=O)c2ccc(Cl)s2)c1,4.05
4,CCn1cc(C(C)NC(=O)COc2ccc(Cl)cc2C)c(C)n1 (stereo not drawn),14.2
5,O=C(C1CC1)N1CCN=C1SCc1cccc(F)c1,8.01
6,Cc1oc(-c2cccc(Cl)c2)nc1CN1CCC(C(=O)NCc2ccco2)CC1,-70.4
7,O=C(COC(=O)c1ccccc1OCc1ccc(Cl)cc1)NC1CC1,7.84
8,CC(=O)c1ccc(OCc2cc(C(=O)N(C)Cc3ccccn3)no2)cc1,-6.77
9,COc1ccc(C(=O)Oc2ccc3c(c2)OCO3)cc1OC,-0.734
10,O=C(O)C1C2CCC(C2)C1C(=O)NCc1ccco1 (stereo not drawn),7.38
11,CCc1ccc(NC(=O)C(C)OC(=O)c2c(C)nn(Cc3ccccc3)c2Cl)cc1 (stereo not drawn),2.51
12,Cc1cccc(-n2c(O)c(C=Nc3cccc(O)c3)c3ccccc3c2=O)n1,11.4
13,CC(=O)c1sc2c(c1N)c(=O)[nH]c(=O)n2-c1ccccc1,9.77
14,COC(C(=O)Nc1ccc(S(=O)(=O)N2CCCCC2)cc1)c1ccccc1 (stereo not drawn),4.34
15,Cc1csc(N/N=C/c2ccccn2)n1,15.5
16,COc1ccc(OC)c(S(=O)(=O)N2CCCC(C(=O)NCc3ccco3)C2)c1 (stereo not drawn),9.49
17,Cn1cccc1/C=C1\SC(=S)N(NC(=O)c2ccccc2Cl)C1=O,-2.66
18,CC1CCN(Cc2ccc(NC(=O)CC3Oc4ccccc4NC3=O)cc2)CC1 (stereo not drawn),3.4
19,CCOc1ccc(C(C)=O)cc1CSc1nnnn1-c1ccc(O)cc1,-19.2
20,CC(C)(C)c1ccc(S(=O)(=O)N2CCCCC2)cc1,4.3
21,COc1ccc(/C(C)=N/NC(=O)OC(C)(C)C)cc1[N+](=O)[O-],10.5
22,Cc1ccc(-n2c(SCC(=O)Nc3cccc(S(N)(=O)=O)c3)nc3ccccc32)cc1,-1.93

row,Compound,"hERG current change (%, negative = inhibition) at 1uM [%]"
1,COc1ccc(N2C(=O)c3ccccc3NC2c2ccc(OC)c(CSc3ccccn3)c2)cc1 (stereo not drawn),11.1
2,Fc1ccc(-c2oncc2-c2nnnn2-c2ccccc2)cc1F,-4.25
3,CCOc1ccc(S(=O)(=O)c2c(C(=O)c3ccccc3)cnc3cc4c(cc23)OCCO4)cc1,9.27
4,Cc1c(Nc2c3ccccc3nc3ccccc23)c(=O)n(-c2ccccc2)n1C,-47.4
5,C/C(=N\NC(=O)c1ccccc1[N+](=O)[O-])c1c(O)cc(C)oc1=O,24
6,CCC(C)NC(=O)CO/N=C/c1ccccc1OC(F)F (stereo not drawn),1.8
7,O=C(CSc1ncccn1)N1CCN(S(=O)(=O)c2ccccc2)CC1,7.76
8,C=CCNC(=O)/C(=C/c1cn(-c2ccccc2)nc1-c1cccc([N+](=O)[O-])c1)NC(=O)c1ccccc1,-1.23
9,O=C1CSC(c2cccnc2)N1CC1CC1 (stereo not drawn),9.36
10,Cn1c(N)c(C(=O)CSc2n[nH]c(-c3ccccc3)n2)c(=O)n(C)c1=O,1.83
11,Cc1cc(C(=O)NCC(=O)OCC(=O)NCC2CCCO2)ccc1[N+](=O)[O-] (stereo not drawn),11.3
12,Cc1ccc(N2C(=O)CC(N3CCN(c4ccc(F)cc4)CC3)C2=O)c(C)c1 (stereo not drawn),0.98
13,CN(Cc1ccccc1F)C(=O)CCNC(=O)c1ccc(C(C)(C)C)cc1,4.24
14,Cc1ccc(S(=O)(=O)N2CCC3(CC2)OCCO3)c(C)c1,14.4
15,CN(C)/C=N/C1=C(C#N)C(c2ccc(Br)cc2)c2ccc3ccccc3c2O1 (stereo not drawn),18.8
16,Cc1cccc(OCC(=O)Nc2ccc3c(c2)nc(CCN2CCN(C)CC2)n3C)c1,-6.31
17,CCOC(=O)C1CCCN(C(=O)c2ccc3c(c2)NC(=O)C(N2CCOCC2)S3)C1 (stereo not drawn),9.57
18,CC(=O)Nc1ccc(S(=O)(=O)NCCSCc2ccccc2Cl)cc1,8.32
19,Cc1cccc(OCC(=O)N2CCN(C(=O)c3ccc([N+](=O)[O-])cc3)CC2)c1,-38.8
20,CCOC(=O)CN(C#N)c1nc(C)cc(C)n1,-2.69
21,O=C(c1c(O)cc(O)cc1O)C1c2c(cc(O)c3c2O[C@H](c2ccc(O)cc2)[C@@H](O)C3)OC1c1ccc(O)cc1 (stereo partly drawn),13.1
22,Cc1ccc(/C=N/NC(=O)CN2C(=O)CSc3ccccc32)o1,12.9

row,Compound,"hERG current change (%, negative = inhibition) at 1uM [%]"
1,COc1ccc(C2C(C(=O)N3CCN(c4ccccc4F)CC3)c3ccccc3C(=O)N2C)cc1 (stereo not drawn),-5.09
2,CC(=O)Nc1ccc(S(=O)(=O)NCC(=O)OCC(=O)N2CCN(c3ccccc3)CC2)cc1,3.81
3,O=C1CSC(c2cccc([N+](=O)[O-])c2)N1CCc1ccccc1 (stereo not drawn),13.6
4,COc1ccccc1NC(=O)CSc1ncc(CO)n1Cc1ccc(F)cc1,8.66
5,N#C/C(=C/c1ccc(-c2ccc(S(N)(=O)=O)cc2)o1)c1nc2ccccc2s1,7.66
6,Clc1ccc(CN2CCCCCC2)cc1.O=C(O)C(=O)O,13.4
7,CCc1ccc(CCC(=O)Nc2ccc(OC)cc2)o1,9.76
8,COc1ccccc1CNC(=O)Cn1cc2c(n1)CCCC2,4.62
9,Cc1ccccc1NC(=S)N1CCN(C(=O)c2ccco2)CC1,12.1
10,CCOc1ccc(S(=O)(=O)Nc2nc3ccc(OC)cc3s2)cc1,11.7
11,O=C(O)/C=C/C(=O)N1CCN(C(c2ccccc2)c2ccccc2)CC1,17.3
12,CN1CCN(c2ncc3c(n2)CC(c2ccccc2F)CC3=O)CC1 (stereo not drawn),9.18
13,CCc1cc2c(NC3CCCC3)ncnc2s1.Cl,5.39
14,O=C(COC(=O)COc1cccc(F)c1)NCCC1=CCCCC1,15.2
15,CN(C)c1cccc(C(=O)NN2C(=O)NC3(CCCCC3)C2=O)c1,12.5
16,O=C(C1CCCN(S(=O)(=O)c2cccc3nonc23)C1)N1CCC(Cc2ccccc2)CC1 (stereo not drawn),-0.208
17,NS(=O)(=O)c1ccc(NC(=S)Nc2ccc(OCc3ccccc3)cc2)cc1,18.5
18,C=CCN1C(=O)c2cccc3c(N4CCCCC4)ccc(c23)C1=O,5.49
19,Cc1ccc2[nH]c(C(=O)N3CCOCC3)cc2c1,17.9
20,CC1CN(Cc2nnc(-c3ccccc3)o2)CC(C)O1.Cl (stereo not drawn),6.49
21,O=C(Nc1ccc2nc(-c3ccco3)[nH]c2c1)c1cccs1,9.77
